Data taken from PubChem BioAssay AID1345083 (National Center for Advancing Translational Sciences (NCATS), 2018).
Among all 94,000 compounds or so, about 6,200 (6.6%) were called active. Inconclusive results, whose numbers are uncertain, are shown with a selection of clear calls. The call rests on the fitted dose curve; in most records, active means well fitted inhibition curve with a large enough effect; inconclusive means small, poorly fitted or top-dose-only effect; inactive means flat fitted curve, though single readings scatter. Potencies of inconclusive entries are doubtful fits and often do not repeat.

Assay: Cytotoxic Profiling in HEK 293 Cell Line of Diverse Libraries Using Quantitative High-Throughput Screening; further: nearly all actives have a fitted effect of over 60% in size
Details: HEK 293 viability, ATP luminescence (CellTiter-Glo), 48-72 h; activity change, negative = cytotoxicity: at 115 µM (top of the series) unless noted; series mostly up to 115 µM
In short: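 250 HEK 293 cells/well; compound by pintool; incubated 48 or 72 hr at 37 degree Celsius; CellTiter-Glo added, 10 min RT, luminescence imaged.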
On the % scale 0 is the no-effect control and ±100 the full control effect; potency means the concentration at half of the fitted maximal effect; tags describe the fitted curve by direction and shape.

| SMILES | Potency | activity change, negative = cytotoxicity | outcome |
| --- | --- | --- | --- |
| COc1ccccc1Nc1ncc2c(n1)CN(C(=O)Cc1ccc3c(c1)OCO3)CCN2 | inconclusive: 126 µM [inhibitor, single point] | – | – |
| O=C(c1ccoc1)N1CCCC(c2noc(COc3ccccc3)n2)C1 (stereo unspecified) | – | inactive: -24.5% | – |
| CC(C)C1=NOC2(CCN(CC3CCCCC3)CC2)C1 | – | inactive: -6.28% [at 172 µM] | – |
| COc1cc(Cl)ccc1-c1nc(C2CC(=O)N(C3CCCCC3)C2)no1 (stereo unspecified) | inconclusive: 56.2 µM [inhibitor, partial curve, poor fit] | – | – |
| COCc1nc(-c2ccc(OC3CN(C(=O)c4ccc(OC)cc4)C3)cc2)no1 | inconclusive: 50.1 µM [inhibitor, partial curve, poor fit] | – | – |
| O=C(NCc1ccc(Cl)cc1)c1nc2sccn2c1-c1cccnc1 | inconclusive: 56.2 µM [inhibitor, partial curve, poor fit] | – | – |
| COc1ccc(-c2cc(C(=O)NCc3ccc(Cl)cc3)c3cnn(C)c3n2)cc1 | inconclusive: 50.1 µM [inhibitor, partial curve, poor fit] | – | – |
| CCN(CC)CC(=O)N1CCC(Oc2ccccc2C)(C(=O)O)CC1 | – | inactive: -17.2% | – |
| O=C(NC1CCN(c2nccc(Nc3ccccc3Cl)n2)CC1)c1cccc(Cl)c1 | inconclusive: 70.8 µM [inhibitor, partial curve, poor fit] | – | – |
| O=C1CN(C(=O)c2ccc(-n3cccn3)cc2)CC(OCc2ccccc2)CN1Cc1cccnc1 (stereo unspecified) | – | inactive: 0.591% | – |
| O=S(=O)(Cc1ccccc1)N1CC(n2cnnc2C2CCCO2)C1 (stereo unspecified) | – | inactive: -0.49% | – |
| O=c1cc(-c2cccnc2)oc2c(NCCc3ccccn3)nccc12 | inconclusive: 126 µM [inhibitor, partial curve, poor fit] | – | – |
| NC(=O)[C@H]1C[C@@H](O)[C@H](O)[C@H]2[C@@H]1SC(=Nc1ccc(Cl)cc1)N2Cc1ccc(F)cc1 | inconclusive: 56.2 µM [inhibitor, partial curve, poor fit] | – | – |
| O=C1NCCCN1C1CCN(Cc2cccc3ccccc23)CC1 | inconclusive: 112 µM [inhibitor, single point] | – | – |
| COc1ccc(-c2[nH]ncc2CN)cc1 | inconclusive: 89.1 µM [inhibitor, single point] | – | – |
| Clc1ccccc1C1(c2ccnc(NCCc3cccnc3)n2)CCNCC1 | inconclusive: 44.7 µM [inhibitor, partial curve, poor fit] | – | – |
| COCC(=O)Nc1ccc([C@@H](O)[C@H]2COCC(=O)N2Cc2ccccc2)cc1 | – | – | inactive [at 172 µM] |
| CCc1ccc(C(=O)N2CCC(n3cnnc3-c3ccccc3)CC2)cc1 | – | inactive: 0.99% | – |
| O=c1[nH]ccn1C1CCN([S+](=O)([O-])c2cccc(C(F)(F)F)c2)CC1 | – | inactive: -19.4% | – |
| C[S+](=O)([O-])c1ccc(-c2cc(C(=O)N3CCOCC3)nn3cccc23)cc1 | – | inactive: -1.81% | – |
| Cc1cc(C)n(Cc2cc(C(=O)N3C[C@H]4CC[C@H]3C4)n[nH]2)n1 | – | inactive: -6.05% | – |
| CC1=C[C@@H](CO)[C@H](C(C)C)C[C@H]1CC(=O)NCc1ccc(C(F)(F)F)cc1 | active: 39.8 µM | – | – |

| SMILES | Potency | activity change, negative = cytotoxicity | outcome |
| --- | --- | --- | --- |
| Cn1c2c(c3ccccc31)CN(C(=O)Nc1ccccc1F)CC2 | active: 44.7 µM | – | – |
| Cc1csc(NC(=O)[C@@H]2CCC[C@@H](NCC3CC3)CN(C)C(=O)C2)n1 | – | inactive: 0.502% [at 172 µM] | – |
| N#Cc1ccc(CN2CCCCCCNC(=O)[C@@H]3CCC[C@@H]32)cc1 | inconclusive: 79.4 µM [inhibitor, partial curve, poor fit] | – | – |
| Cc1ccc(C(=O)N2CCC3(CC2)CC(N(C(=O)c2ccccc2)C2CC2)CCO3)cn1 (stereo unspecified) | inconclusive: 89.1 µM [inhibitor, single point] | – | – |
| COc1ccc2c(c1)CN(Cc1ccccc1)C(=O)CCN2C(C)=O | – | inactive: -19.6% | – |
| COc1ccc(-c2cc(N3CCC(NC(=O)CCCc4ccccc4)CC3)n[nH]2)cc1 | inconclusive: 35.5 µM [inhibitor, partial curve, poor fit] | – | – |
| Cc1ccc(C(=O)NC2CCN(c3cc(-c4cccs4)[nH]n3)C2)cc1F (stereo unspecified) | inconclusive: 44.7 µM [inhibitor, full curve, poor fit] | – | – |
| Cc1noc(-c2ccc(OC3CN(S(=O)(=O)c4c(C)noc4C)C3)cc2)n1 | inconclusive: 44.7 µM [inhibitor, partial curve, poor fit] | – | – |
| CC(C)CCN1CC2(COCC(=O)N(Cc3cccc(OC(F)(F)F)c3)C2)C1 | inconclusive: 56.2 µM [inhibitor, single point] | – | – |
| Cn1ncc(N2CCC(NC(=O)C3CCOCC3)CC2)cc1=O | – | inactive: -2.14% | – |
| CO[C@@H]1COCC[C@H]1NC(=O)c1ncc[nH]c1=O | inconclusive: 8.91 µM [inhibitor, full curve, poor fit] | – | – |
| COc1cccc(-c2ccc(CN3CCCC3C(=O)NC3CCC3)cc2)c1 (stereo unspecified) | inconclusive: 31.6 µM [inhibitor, partial curve, poor fit] | – | – |
| Cc1noc(C)c1[S+](=O)([O-])N1CCN(Cc2ccccc2-c2ccccc2F)CC1 | inconclusive: 56.2 µM [inhibitor, partial curve] | – | – |
| CC1=C[C@@H](CNCc2ccccc2)[C@H](C(C)C)C[C@H]1Cc1nc2c(C)cccc2[nH]1 | active: 25.1 µM | – | – |
| O=C(NCc1ccc(Cl)cc1)C1CCc2nnc(CN[S+](=O)([O-])c3ccccc3Cl)n21 (stereo unspecified) | – | inactive: 0.452% | – |
| O=C(c1ccc(Cl)nc1)N1CCCN(c2ccnc3ccnn23)CC1 | inconclusive: 28.2 µM [inhibitor, full curve, poor fit] | – | – |
| O=C(Cn1c(=O)c2c(n1Cc1ccccc1)CN(Cc1ccccc1)CC2)NCc1cccc(Cl)c1 | inconclusive: 56.2 µM [inhibitor, partial curve, poor fit] | – | – |
| Cc1c(-c2ccccc2)[nH]c2c(CNC(=O)Cn3ccc(=O)[nH]c3=O)cc(Cl)cc12 | inconclusive: 89.1 µM [inhibitor, partial curve, poor fit] | – | – |
| CCN(Cc1ccccc1)C(=O)CCc1ccc2c(c1)CN(C(=O)NC(C)C)CCO2 | inconclusive: 89.1 µM [inhibitor, single point] | – | – |
| CN(C)c1ccc(CN2CCC3(C2)C(=NC2CCCC2)NC(=O)N3c2cc(F)cc(F)c2)cc1 (stereo unspecified) | inconclusive: 89.1 µM [inhibitor, single point] | – | – |
| COc1ccc(F)c(CN2CCCC3(CCN(C(=O)C4CCCC4)C3)C2)c1 (stereo unspecified) | inconclusive: 56.2 µM [inhibitor, partial curve, poor fit] | – | – |
| Cc1nc([C@@H]2CN(Cc3ccccc3)C[C@H]2C(N)=O)n[nH]1 | – | inactive: 2.1% | – |

| SMILES | Potency | activity change, negative = cytotoxicity | outcome |
| --- | --- | --- | --- |
| O=C(N[C@@H]1CCC[C@@H]1C(=O)N1CCCCCC1)c1ccncc1 | – | inactive: -23.6% | – |
| Cc1nn(-c2ccccc2)c2c1C(C1CC1)N(C1CN(C(=O)c3ccccc3F)C1)C2=O (stereo unspecified) | inconclusive: 39.8 µM [inhibitor, partial curve, poor fit] | – | – |
| COc1cccc(C(=O)Nc2ccc3c(N4CCOCC4)ncnc3c2)c1 | – | inactive: -76.7% | – |
| COc1ccc(NC2CCCN(C(=O)C(C)(C)c3ccccc3)C2)cc1 (stereo unspecified) | inconclusive: 15.8 µM [inhibitor, partial curve, poor fit] | – | – |
| COc1ccc(-c2ccc3ncc(Nc4ccncc4)n3n2)cc1OC | active: 79.4 µM | – | – |
| C[C@H]1CN(C(=O)C2CCCC2)C[C@@H]1c1nc(-c2ccccc2)no1 | inconclusive: 50.1 µM [inhibitor, partial curve, poor fit] | – | – |
| COc1ccccc1CN1Cc2cc(NC(=O)C3CCCC3)ccc2OC(C)C1=O (stereo unspecified) | inconclusive: 56.2 µM [inhibitor, partial curve, poor fit] | – | – |
| O=C(N[C@H]1CO[C@H]2[C@@H]1OC[C@@H]2n1nnnc1-c1ccc2c(c1)OCO2)c1ccccc1 | active: 79.4 µM | – | – |
| O=C(NC1CCN(C(=O)N2CC3CC(C2)[C@H]2CCCC(=O)N2C3)CC1)C1CCCCC1 (stereo partly specified) | inconclusive: 89.1 µM [inhibitor, single point] | – | – |
| O=C(NCc1ccc(Cl)cc1)c1ccnc2[nH]ccc12 | inconclusive: 89.1 µM [inhibitor, partial curve, poor fit] | – | – |
| COc1cccc(C(=O)N2CCN(C(=O)c3cccc(-c4ccccn4)c3)CC2)c1 | inconclusive: 89.1 µM [inhibitor, single point] | – | – |
| COc1ccc(Cl)cc1S(=O)(=O)N1CCC(OC2CCN(C)CC2)CC1 | inconclusive: 89.1 µM [inhibitor, single point] | – | – |
| O=Cc1ccccc1-c1ccc(OC(F)(F)F)cc1 | – | inactive: -26.1% [at 287 µM] | – |
| O=C(NCc1ccc(Cl)cc1)c1noc(-c2ccc(F)cc2)n1 | inconclusive: 79.4 µM [inhibitor, single point] | – | – |
| CC(C)CCN1CCOCCNC(=O)CC1 | – | inactive: -3.2% | – |
| COc1ccc(-c2nc(C(C)C)nc3c2CCN(C(=O)c2ccccc2)CC3)cc1 | inconclusive: 89.1 µM [inhibitor, partial curve, poor fit] | – | – |
| CC(C)CNC(=O)N1CCCC(c2nc(CCOc3ccc(F)cc3)no2)C1 (stereo unspecified) | active: 39.8 µM | – | – |
| Cc1ccc(C(=O)N2CCc3sc(C(=O)NCCN4CCCCCC4)cc3C2)cc1 | inconclusive: 70.8 µM [inhibitor, single point] | – | – |
| COc1cccc(-c2cn3c(n2)N(C(=O)C2CCC2)CCC3)c1 | inconclusive: 31.6 µM [inhibitor, full curve] | – | – |
| c1ccc(O[C@H]2COCCN(c3nc4ccccc4s3)C2)nc1 | inconclusive: 100 µM [inhibitor, partial curve, poor fit] | – | – |
| Cc1noc(C)c1-c1cc2cc(CO)oc2c(NCCOc2ccccc2)n1 | inconclusive: 63.1 µM [inhibitor, partial curve, poor fit] | – | – |
| Cc1ncsc1CN1CCCCCCN(C)C(=O)[C@@H]2CCC[C@@H]21 | – | – | inactive |
